Source: PubChem BioAssay AID1030 (National Center for Advancing Translational Sciences (NCATS), 2008)
About 16,000 (7.3%) of roughly 220,000 compounds were called active. This list was built around the results that the source calls inconclusive (neither active nor inactive); the mix of calls is not that of the screen. The call rests on the fitted dose curve; in most records, active means well fitted inhibition curve with a large enough effect (not every such curve was filed as active); inconclusive means small, poorly fitted or top-dose-only effect, or another doubt; inactive means no such curve, though single readings can be large or run the other way. Potencies of inconclusive entries are left out as doubtful fits.

Biological target: Aldehyde dehydrogenase 1A1 (Homo sapiens) (UniProt P00352)
UniProt P00352, sequence (P00352 whole entry, looked up): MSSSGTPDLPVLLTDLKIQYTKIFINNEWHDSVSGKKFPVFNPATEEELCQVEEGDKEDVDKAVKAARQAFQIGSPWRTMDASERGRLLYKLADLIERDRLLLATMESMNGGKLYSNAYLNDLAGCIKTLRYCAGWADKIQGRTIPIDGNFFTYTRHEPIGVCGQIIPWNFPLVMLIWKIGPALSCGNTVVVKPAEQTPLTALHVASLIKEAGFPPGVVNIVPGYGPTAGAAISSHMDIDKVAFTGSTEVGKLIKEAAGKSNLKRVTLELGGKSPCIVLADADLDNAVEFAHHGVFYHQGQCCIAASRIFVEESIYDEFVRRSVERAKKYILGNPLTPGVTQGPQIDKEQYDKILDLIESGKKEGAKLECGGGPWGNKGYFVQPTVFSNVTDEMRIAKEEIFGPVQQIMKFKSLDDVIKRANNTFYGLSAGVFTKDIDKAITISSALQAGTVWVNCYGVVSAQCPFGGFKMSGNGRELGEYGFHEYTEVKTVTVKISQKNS
Test: qHTS Assay for Inhibitors of Aldehyde Dehydrogenase 1 (ALDH1A1);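 on activity, negative = inhibition: plate controls were no enzyme wells and a reference inhibitor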
Conditions: Purified ALDH1A1, NADH fluorescence, propionaldehyde substrate; series mostly up to 75.3 µM; activity, negative = inhibition: at the top concentration
Potency means the concentration at half of the fitted maximal effect; tags describe the fitted curve by direction and shape.

| SMILES | Potency | activity, negative = inhibition |
| --- | --- | --- |
| Cc1ccc(/C=C2/SC(=S)N(CCC(=O)N3CCN(c4ccccc4)CC3)C2=O)cc1 | inconclusive [inhibitor, partial curve] | – |
| COc1cccc(-c2ccc(SCC(=O)c3ccccc3)nn2)c1 | inconclusive [inhibitor, single point] | – |
| O=C(c1ccccn1)N1CC=C(c2ccccc2)CC1 | inconclusive [inhibitor, single point] | – |
| CC(=O)Oc1cccc(N2C(=O)C3CC=CCC3C2=O)c1 (centres undefined) | – | inactive: 4.2% |
| Cc1ccccc1C(=O)N/N=C1\SCC(=O)N1Cc1ccco1 | – | inactive: 0.631% |
| COc1ccc2[nH]c(C(=O)O)c(CCC(=O)O)c2c1 | inconclusive [inhibitor, partial curve] | – |
| Cc1ccc(Oc2nc3ccccc3n3cccc23)cc1 | inconclusive [inhibitor, single point] | – |
| CCCc1nc(SCC(=O)Nc2nc3c(s2)CCCC3)c2ccccc2n1 | inconclusive [inhibitor, partial curve] | – |
| O=C(Cc1ccc(Nc2nc(=S)[nH]c3ccccc23)cc1)NC1CCCCC1 | – | inactive: 5.91% |
| O=C(CSCc1ccc(F)cc1)Nc1nc2c(s1)CCCC2 | inconclusive [inhibitor, single point] | – |
| Cc1[nH]c(=O)[nH]c(=O)c1S(=O)(=O)N1CCCC(C(=O)NCCC2=CCCCC2)C1 (centres undefined) | inconclusive [inhibitor, single point] | – |
| COCCn1c(=O)c(-c2ccc(OC)cc2)nc2cnc(Oc3ccccc3)nc21 | inconclusive [inhibitor, partial curve] | – |
| CC1Cc2ccccc2N1C(=O)CSc1nnc2sc3ccccc3n12 (centres undefined) | active: 14.1 µM | – |
| Cc1ccc(C)c2[nH]c(=O)c(C(c3nnnn3Cc3ccccc3)N3CCc4ccccc4C3)cc12 (centres undefined) | inconclusive [inhibitor, full curve] | – |
| O=C(CN1CCOc2ccccc21)NCc1cccs1 | – | inactive: -6.21% |
| COc1ccc2[nH]c(=O)c(CN(C(=O)COc3ccccc3)C(C)C)cc2c1 | inconclusive [inhibitor, single point] | – |
| Cc1sc2c(c1C)c(=O)n(-c1ccccc1)c(=O)n2CC(=O)NCC1CCCO1 (centres undefined) | – | inactive: -1.33% |
| COc1ccc(Cl)cc1NC(=O)CN1C(=O)CCS(=O)(=O)c2ccccc21 | – | inactive: 4.45% |
| O=c1c(-c2ccco2)[n+]([O-])c2ccccc2n1OCc1ccccc1[N+](=O)[O-] | active: 14.1 µM | – |
| Nc1nc(Nc2ccccc2)nc(N2CCOCC2)c1[N+](=O)[O-] | active: 12.6 µM | – |
| O=C(COc1ccc(C(=O)c2ccccc2)cc1)NCc1ccc(F)cc1 | inconclusive [inhibitor, partial curve] | – |
| Cc1ccc(-n2c(=O)[nH]c3cc(C(=O)NC4CCN(Cc5ccccc5)CC4)ccc3c2=O)cc1 | – | inactive: 2.4% |
| Cc1ccc(SCC(=O)Nc2ncc(C)s2)cc1 | – | inactive: 10.3% |

| SMILES | Potency | activity, negative = inhibition |
| --- | --- | --- |
| COc1cccc(NC(=S)NN=C2CCCCCC2)c1 | inconclusive [inhibitor, single point] | – |
| CC(=O)NCCOc1cccc2ccccc12 | inconclusive [inhibitor, partial curve] | – |
| CCOc1ccc(NC(=O)CC2C(=O)N(c3ccc(OC)cc3)C(=S)N2Cc2ccccn2)cc1 (centres undefined) | inconclusive [inhibitor, partial curve] | – |
| COc1ccc(CCNc2oc(-c3ccccc3OC)nc2C#N)cc1 | inconclusive [inhibitor, partial curve] | – |
| Cc1ccc(NC(=S)N/N=C2\CCCCC2C)cc1 (centres undefined) | inconclusive [inhibitor, single point] | – |
| CC1(C)NC(=O)N(CC(=O)Nc2nc(-c3ccc(F)cc3)cs2)C1=O | – | inactive: 18.8% |
| CCCCC/C=C/C=C/C=O | inconclusive [inhibitor, single point] | – |
| COc1ccccc1NS(=O)(=O)c1cc(NC(=O)/C=C/c2cccs2)ccc1N1CCOCC1 | inconclusive [inhibitor, single point] | – |
| CSCC(=O)N1CCCC(CNC(=O)c2ccccc2Cl)C1 (centres undefined) | inconclusive [inhibitor, single point] | – |
| COc1ccc(/C=C/C2=CC(C)(C)NC(=S)N2)cc1 | active: 5.62 µM | – |
| CC(=O)c1cc(F)c(N2CCN(C(=O)Cc3ccccc3)CC2)cc1C | active: 8.91 µM | – |
| CN(C)CCCN1C(=O)C(=O)/C(=C(/O)c2ccncc2)C1c1cccc(Br)c1 (centres undefined) | inconclusive [inhibitor, single point] | – |
| CCOc1ccc2oc(-c3ccccc3)c(C(=O)N(C)C)c2c1 | inconclusive [inhibitor, partial curve] | – |
| Cc1cc(=O)oc(C)c1C(=O)NCc1ccc(F)cc1 | inconclusive [inhibitor, single point] | – |
| Nc1cc(-c2ccccc2)nn1S(=O)(=O)c1ccc(Br)cc1 | active: 15.8 µM | – |
| CCCC1(C(=O)OC)C=C2C(=C(c3ccccc3)C(=O)C2C)CN1 (centres undefined) | inconclusive [inhibitor, single point] | – |
| COC(CN(C(=O)CCl)C(C(=O)NC1CCCC(C)C1C)c1ccc(C)cc1)OC (centres undefined) | inconclusive [inhibitor, single point] | – |
| O=C(NC12CC3CC(CC(C3)C1)C2)N1CCN(c2nc(-c3ccccc3)cs2)CC1 | inconclusive [inhibitor, partial curve, poor fit] | – |
| CCOC(=O)CC(NS(=O)(=O)c1ccc(OC)c(OC)c1)c1cccc([N+](=O)[O-])c1 (centres undefined) | inconclusive [inhibitor, single point] | – |
| COc1cc(-c2nc3ccccn3c2/N=C/c2cccc(F)c2)ccc1O | inconclusive [inhibitor, partial curve] | – |
| CCc1sc(/C=C(/C#N)C(N)=S)cc1[N+](=O)[O-] | active: 2.24 µM | – |
| O=C1CC(N(CCc2ccccc2)C(=S)Nc2cc(Cl)ccc2Cl)C(=O)N1c1c(Cl)cccc1Cl (centres undefined) | inconclusive [inhibitor, partial curve] | – |
| COc1ccc(S(=O)(=O)N2CCCC2C(=O)Nc2nnc(-c3cccnc3)s2)cc1 (centres undefined) | inconclusive [inhibitor, partial curve] | – |

| SMILES | Potency | activity, negative = inhibition |
| --- | --- | --- |
| C/C(CC(=O)Nc1ccc([N+](=O)[O-])cc1)=N/NC(=O)C1CC12CCC2 (centres undefined) | inconclusive [inhibitor, partial curve] | – |
| Cc1cccc(OCCN2C(=O)C(=O)c3cc(C)ccc32)c1 | active: 0.631 µM | – |
| O=C(OCCCN=C1NS(=O)(=O)c2ccccc21)c1ccc([N+](=O)[O-])cc1 | – | inactive: 10.2% |
| CCOC(=O)C1(CCCc2ccccc2)CCN(CCCn2cccn2)CC1 | inconclusive [inhibitor, single point] | – |
| O=C1C=C(c2ccccc2)CC(c2cccs2)C1n1cnc([N+](=O)[O-])c1 (centres undefined) | inconclusive [inhibitor, partial curve] | – |
| CCc1cc2c(SCC(=O)Nc3ncc(Cl)c(C)c3Cl)ncnc2s1 | – | inactive: 13.2% |
| O=S(=O)(Nc1ncnc2sc3c(c12)CCC3)c1ccc2ccccc2c1 | inconclusive [inhibitor, partial curve] | – |
| CC(C)Cn1c(N)c(C(=O)COC(=O)c2cc(-c3ccccc3)nc3ccccc23)c(=O)n(C)c1=O | inconclusive [inhibitor, single point] | – |
| Cc1cc([N+](=O)[O-])nn1CCCC(=O)Nc1sc2c(c1C(N)=O)CCC(C)C2 (centres undefined) | inconclusive [inhibitor, partial curve] | – |
| O=S(=O)(NC1CCCCCC1)c1ccc(Br)s1 | inconclusive [inhibitor, single point] | – |
| Cc1cc(C)c2nc3c(c([C@H](O)C4CCCCN4)c2c1)CC/C3=C/c1ccc(Cl)cc1 (some centres undefined) | – | inactive: 10% [at 13.5 µM] |
| COc1cccc(C2=CC(c3ccc(OC)c(OC)c3)NC(=S)N2)c1 (centres undefined) | active: 14.1 µM | – |
| C=CCc1cc(OC)ccc1OCCOCCN1CCc2ccccc2C1 | inconclusive [inhibitor, partial curve] | – |
| O=C(COc1ccc(-n2ccnc2)cc1)Nc1cccc(Cl)c1 | – | inactive: -3.83% |
| CC1=NN(c2ccc(C)cc2C)C(=O)C1C(c1ccccc1)C1C(=O)N(c2ccc(C)cc2C)N=C1C (centres undefined) | inconclusive [inhibitor, partial curve] | – |
| Cc1cc(C(=O)CSc2nnc(-c3ccccc3F)o2)c(C)n1Cc1cccs1 | – | inactive: 0.749% |
| Cc1ccccc1-n1c(=O)cc(N2CCN(C(=O)c3ccco3)CC2)[nH]c1=O | inconclusive [inhibitor, single point] | – |
| COCCn1c(=O)[nH]c2cc(C(=O)NCCc3ccc(OC)c(OC)c3)ccc2c1=O | inconclusive [inhibitor, partial curve] | – |
| COc1ccccc1Oc1coc2c(CN(C)C)c(O)ccc2c1=O | inconclusive [inhibitor, partial curve] | – |
| CC(C)N(CCNC(=O)c1oc(=O)c2ccccc2c1-c1ccccc1)Cc1ccco1 | inconclusive [inhibitor, single point] | – |
| CCOC(=O)c1c(CN2CCOCC2)n(-c2ccccc2)c2cc(Br)c(O)cc12 | – | inactive: 4.06% |
| Cc1cc(=O)oc2cc(OCC3CC(c4ccc(Br)cc4)=NO3)ccc12 (centres undefined) | inconclusive [inhibitor, partial curve] | – |
| CCOC(=O)C1CCCN(C(=O)N2CCOCC2)C1 (centres undefined) | – | inactive: -0.0287% |
